Results reported in paper PMC4336329 (PLoS ONE, 2015).
Screen size: about 310,000 compounds; about 14,000 (4.5%) showed an effect of 50% or more. Effects have a minus sign here. This is one part of the list.

Molecular target: human ether-à-go-go-related gene (hERG) potassium channel (human, UniProt Q12809)
Experiment: primary screen, population patch clamp on CHO cells stably expressing hERG
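Also: peak tail current of the secondary pulse compared with the same well before compound.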

human ether-à-go-go-related gene (hERG) potassium channel, sequence (Q12809 whole entry, looked up): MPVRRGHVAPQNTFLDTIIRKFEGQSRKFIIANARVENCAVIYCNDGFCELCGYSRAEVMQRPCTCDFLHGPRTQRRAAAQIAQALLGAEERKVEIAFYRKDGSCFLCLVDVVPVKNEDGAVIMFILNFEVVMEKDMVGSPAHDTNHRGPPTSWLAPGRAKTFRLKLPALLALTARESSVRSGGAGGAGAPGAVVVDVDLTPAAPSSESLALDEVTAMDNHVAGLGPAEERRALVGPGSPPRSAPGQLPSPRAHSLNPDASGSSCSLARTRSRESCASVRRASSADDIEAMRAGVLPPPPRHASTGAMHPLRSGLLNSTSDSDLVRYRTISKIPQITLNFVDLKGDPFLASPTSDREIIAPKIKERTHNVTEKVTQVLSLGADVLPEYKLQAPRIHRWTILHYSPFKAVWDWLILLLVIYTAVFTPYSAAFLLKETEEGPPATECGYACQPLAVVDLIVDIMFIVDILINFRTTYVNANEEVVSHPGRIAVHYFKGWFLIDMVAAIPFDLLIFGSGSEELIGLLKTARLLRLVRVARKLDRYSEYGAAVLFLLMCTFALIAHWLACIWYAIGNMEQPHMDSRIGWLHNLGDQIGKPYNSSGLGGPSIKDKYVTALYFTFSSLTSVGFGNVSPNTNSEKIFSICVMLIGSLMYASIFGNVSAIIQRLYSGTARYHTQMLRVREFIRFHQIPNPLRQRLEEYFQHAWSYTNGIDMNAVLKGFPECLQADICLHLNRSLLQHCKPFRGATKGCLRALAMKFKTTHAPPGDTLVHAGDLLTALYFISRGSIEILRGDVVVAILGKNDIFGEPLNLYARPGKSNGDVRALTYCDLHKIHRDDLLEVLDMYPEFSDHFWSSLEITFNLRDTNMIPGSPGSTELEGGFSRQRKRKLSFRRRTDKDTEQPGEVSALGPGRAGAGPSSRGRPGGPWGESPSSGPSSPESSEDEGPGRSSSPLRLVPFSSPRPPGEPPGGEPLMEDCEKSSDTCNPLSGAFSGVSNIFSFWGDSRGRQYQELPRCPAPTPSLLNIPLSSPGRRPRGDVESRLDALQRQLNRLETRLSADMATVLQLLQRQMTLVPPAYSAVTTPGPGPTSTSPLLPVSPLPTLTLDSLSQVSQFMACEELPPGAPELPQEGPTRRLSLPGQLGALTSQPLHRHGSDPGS

Row | SMILES | hERG current change (%, negative = inhibition) at 10uM
1 | O=C(CSC1=NC(=O)C(c2ccccc2)C(=O)N1)Nc1ccccc1[N+](=O)[O-] (centres unmarked) | 28.3%
2 | CCCc1cc(-c2[nH]ncc2-c2ccc3c(c2)OCCCO3)c(O)cc1O | -4.2%
3 | COC(=O)c1ccc2c(c1)NC1=C(C(=O)CC(C)(C)C1)C(c1ccncc1)N2 (centres unmarked) | -4.48%
4 | Cc1ccc(CSc2nc3ncccc3[nH]2)cc1 | 9.2%
5 | COc1ccc(CCN2C(=O)CC(N3CCN(S(=O)(=O)c4ccccc4)CC3)C2=O)cc1OC (centres unmarked) | -5.73%
6 | COCC(=O)NNC(=O)c1ccc(OC)cc1 | 12.7%
7 | Cc1cc2cc(C)c3nnc(SCc4ccccn4)n3c2cc1C | -23.7%
8 | O=C(Nc1cccnc1)c1cccc(S(=O)(=O)N2CCCC2)c1 | 8.58%
9 | COc1cccc(OCc2nn3c(=O)c(-c4ccccc4)nnc3s2)c1 | 14%
10 | O=C(NCc1ccccc1)Nc1cccn(Cc2c(F)cccc2Cl)c1=O | 22.5%
11 | Cc1cc(C)n(-c2nc(Nc3ccccc3C(F)(F)F)nc(-n3nc(C)cc3C)n2)n1 | -15.2%
12 | O=C(COc1ccc(Cl)cc1Br)Nc1nnc(C2CC2)s1 | 7.31%
13 | CCn1c(SCc2nc3ccccc3[nH]2)nnc1-c1ccc(OC)cc1 | -1.72%
14 | Cn1c(-c2csc(-c3cccc(C(F)(F)F)c3)n2)n[nH]c1=S | 19%
15 | CNc1ccccc1C(C)(C)c1ccn[nH]1 | 11.7%
16 | COC(=O)[C@@H]1[C@H]2C[C@H]3c4[nH]c5ccccc5c4CCN3C[C@@H]2CC[C@@H]1O | -57.5%
17 | O=C(Nc1ccc(F)cc1Cl)c1ccc2c(=O)n3c(nc2c1)CCC3 | -19.3%
18 | Cc1ccc(C(=O)N(Cc2cccnc2)Cc2cc3cc(C)ccc3n3nnnc23)cc1 | -23.8%
19 | O=C(NCCc1cnccn1)C1CCC(=O)N(Cc2ccc(Cl)cc2)C1 (centres unmarked) | 2.46%
20 | CCn1cc(C(=O)Nc2ccccc2C(=O)OC)cn1 | 3.13%
21 | O=[N+]([O-])c1ccc(N/N=C/c2cccc(O)c2O)c(S(=O)(=O)N2CCOCC2)c1 | -5.8%
22 | Cc1cccc(C)c1NC(=O)C(c1ccc([N+](=O)[O-])cc1)N(C)C(=O)c1ccccn1 (centres unmarked) | -27%
23 | CCN(CC)CCN1C(=O)C(=O)/C(=C(/O)c2c(C)[nH]c(C(=O)OC)c2C)C1c1ccccc1 (centres unmarked) | -5.47%
